# Among all 150,000 compounds or so, about 180 (0.12%) were called active. The inconclusive results got no clear call from the source; some entries with a clear call stand among them for comparison. The call rests on the fitted dose curve; in most records, active means well fitted cell-killing curve with a large enough effect; inconclusive means small, poorly fitted or top-dose-only effect, or effect the other way; inactive means flat fitted curve, though single readings scatter. Where the call is inconclusive, the potency comes from a doubtful curve fit.
# Assay: GF-AFC viability counterscreen for inhibitors of alpha-synuclein gene (SNCA) expression; further: nearly all actives have a fitted effect of over 30% in size
# Conditions: HEK-293-SNCA-luc viability, GF-AFC fluorescence, 24 h; series mostly up to 57.1 µM
# Summary of the method: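 HEK-293-SNCA-luc cells (1500/well) plated 24 h, then exposed 24 h to a dilution series; GF-AFC added 30 min at 37C, fluorescence 405/540 nm; normalised to medium-only and DMSO wells, Hill fit.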
# Potency means the concentration at half of the fitted maximal effect; tags describe the fitted curve by direction and shape.
row,Compound,Potency
1,Cn1c(=O)c(-c2cc(F)cc(F)c2)nc2cnc(N3CCNCC3)nc21,"inconclusive: 6.31 µM [rising, partial curve]"
2,O=C(NCc1ccccc1F)c1cc2ccccn2n1,"inconclusive: 39.8 µM [rising, partial curve, poor fit]"
3,COc1cccc(CN2CCCC3(CN[S+](=O)([O-])c4ccccc4N3)C2)c1 (centres undefined),"inconclusive: 39.8 µM [cytotoxic, single point]"
4,Cc1nc(-c2ccc(Cl)cc2)n(Cc2ccc(F)cc2F)c(=O)c1CCO,inactive
5,O=C(NC1CCCN(c2cc(-c3ccccc3)[nH]n2)C1)c1cccc(Cl)c1 (centres undefined),"inconclusive: 12.6 µM [cytotoxic, partial curve, poor fit]"
6,O=C(O)Cn1ccc2cc(OCC3CCN(C(=O)C4CCCC4)CC3)cnc21,inactive
7,CCCCNC(=O)c1ccc2c(c1)n(Cc1cccc(OC)c1)c(=O)c1ccnn12,inactive
8,CCc1cc(=O)n(CC(=O)Nc2cc(OC)c(OC)c(OC)c2)c(-c2ccccc2)n1,"inconclusive: 35.5 µM [cytotoxic, single point]"
9,CCn1nccc1C(=O)N1CCC2(CC1)C(OC)C(=O)N2CC1CC1 (centres undefined),inactive
10,O=C(c1ccc(F)cc1)N1CCC(Oc2ccccc2)C1 (centres undefined),inactive
11,COCCN1CCNc2nc(COc3ccc(Cl)cc3OC)n(Cc3ccccc3)c2C1=O,inactive
12,COc1ccc(C(=O)N2CCC3(CC2)N(C)C(=O)CS3(=O)=O)cc1OC,"inconclusive: 2.82 µM [cytotoxic, partial curve, poor fit]"
13,Cc1ccccc1-c1ccc2ncnc(NCCN3CCOCC3)c2c1,inactive
14,Cc1ccc(CN2C(=O)CC(c3ccc(Cl)cc3)c3c(C)nn(-c4nc(C)cc(C)n4)c32)cc1 (centres undefined),"inconclusive: 31.6 µM [cytotoxic, single point]"
15,COc1ccc(C(=O)N2C[C@@H](CO)[C@H](c3nc(C4CC4)no3)C2)cc1,"inconclusive: 17.8 µM [cytotoxic, partial curve, poor fit]"
16,CCOC(=O)C1CCCN(C(=O)c2cn3cc(-c4ccc(OC)cc4)sc3n2)C1 (centres undefined),"inconclusive: 1.26 µM [rising, full curve, poor fit]"
17,COc1ccc(CNC(=O)C(=O)Nc2ccccc2OC)cc1,inactive
18,CCC(C)Cc1nccc(C2(c3ccccc3Cl)CCNCC2)n1 (centres undefined),"inconclusive: 35.5 µM [cytotoxic, single point]"
19,COc1ccc2cc(C(=O)N3CCc4nn(C)c(=O)n4CC3)[nH]c2c1,"inconclusive: 2.82 µM [rising, full curve, poor fit]"
20,CCNc1ncc2nc(-c3cc(F)cc(F)c3)c(=O)n(C3CC3)c2n1,"inconclusive: 12.6 µM [rising, partial curve]"

row,Compound,Potency
1,CC(=O)N1CCc2c(sc3c2c(=O)n(-c2cc(Cl)ccc2C)c(=O)n3C)C1,"inconclusive: 6.31 µM [cytotoxic, partial curve, poor fit]"
2,CCC(=O)N1Cc2ccccc2CC2(CCCN(C)C2)C1 (centres undefined),inactive
3,CCc1nc2c(c(-c3ccc(O)cc3)n1)CCN(Cc1cccc(C(F)(F)F)c1)CC2,inactive
4,Cc1sc2ncn(CC(=O)N3CCN(c4cccc(Cl)c4)CC3)c(=O)c2c1S(=O)(=O)N1CCC(C)CC1,"inconclusive: 5.01 µM [cytotoxic, partial curve, poor fit]"
5,O=C(Cn1c(=O)n(CC2CCCO2)c(=O)c2ccccc21)Nc1ccc(F)cc1F (centres undefined),"inconclusive: 10 µM [cytotoxic, partial curve, poor fit]"
6,CN1CCN(c2ncc3nc(-c4cc(F)cc(F)c4)c(=O)n(CCC#N)c3n2)CC1,"inconclusive: 17.8 µM [rising, partial curve]"
7,Cc1ccccc1C(C(=O)NC1CCCCC1)N(C(=O)Cn1cnc2ccccc21)c1cccc(F)c1 (centres undefined),"inconclusive: 29.9 µM [cytotoxic, single point]"
8,N#C/C(=C/c1ccccc1Cl)c1nc(-c2cc3ccccc3oc2=O)cs1,"inconclusive: 39.8 µM [rising, single point]"
9,CN(C)c1cccc(-c2cnc(Nc3ccncc3)c3c2CCO3)c1,"inconclusive: 14.1 µM [cytotoxic, partial curve, poor fit]"
10,CCc1ccc(NC(=O)CCCc2nnc3n(C(C)CC)c(=O)c4sccc4n23)cc1 (centres undefined),"inconclusive: 2.24 µM [cytotoxic, full curve, poor fit]"
11,COc1ccccc1CNC(=O)[C@@H]1Cc2cn(C)c3cccc(c23)[C@H](CC(C)C)N1,"inconclusive: 56.2 µM [cytotoxic, single point]"
12,CCOC(=O)c1ccccc1NC(=O)CSc1cn(CC(=O)N2CCCCCC2)c2ccccc12,"inconclusive: 14.1 µM [cytotoxic, partial curve, poor fit]"
13,COc1ccccc1Nc1ccnc(N2CCC(C(=O)NCc3ccc(C(F)(F)F)cc3)CC2)n1,"inconclusive: 22.4 µM [cytotoxic, single point]"
14,COc1ccc(Nc2oc(/C=C/c3cc(OC)c(OC)c(OC)c3)nc2C#N)cc1,"inconclusive: 28.2 µM [rising, single point]"
15,Cc1nc2sccn2c1C(=O)NC1CC(c2nnc(CN(C)C)n2C)C1 (centres undefined),"inconclusive: 10 µM [rising, partial curve, poor fit]"
16,Cc1ccc(-c2nnc(Nc3ccc(O)cc3)c3ccccc23)cc1S(=O)(=O)NC(C)(C)CO,"inconclusive: 17.8 µM [cytotoxic, partial curve]"
17,CCOc1ccc(C(=O)NCC(c2ccc3c(c2)OCO3)N2CCN(C)CC2)cc1 (centres undefined),"inconclusive: 25.1 µM [cytotoxic, partial curve, poor fit]"
18,COc1ccc(-c2[nH]nc3ncc(C(=O)N4CCN(Cc5ccccc5)CC4)nc23)c(C)c1,"inconclusive: 28.2 µM [cytotoxic, partial curve, poor fit]"
19,COc1ccc2nc(NC(=O)c3nc(S(=O)(=O)Cc4ccc(C)cc4)ncc3Cl)sc2c1,"inconclusive: 35.5 µM [cytotoxic, single point]"
20,Cc1cccc(-c2cccc(CN3CCC(NC(=O)c4cccc(Cl)c4)CC3)c2)c1,"inconclusive: 35.5 µM [cytotoxic, single point]"

row,Compound,Potency
1,CN(C)c1ccc(CN2CCOC[C@H]2c2ncc(-c3ccc(F)cc3F)[nH]2)cc1,"inconclusive: 28.2 µM [cytotoxic, single point]"
2,CC1(COc2cccnc2)COc2ccc(C(=O)NCCOc3ccccc3)cc2N1 (centres undefined),"inconclusive: 6.31 µM [cytotoxic, partial curve, poor fit]"
3,CCN1c2cc(C(=O)Nc3cc(F)cc(F)c3)ccc2C(=O)N2CCCCC21 (centres undefined),"inconclusive: 3.16 µM [rising, partial curve, poor fit]"
4,COC(=O)N1CC2(CC2)C[C@H](C(=O)NO)[C@H]1C(=O)N1CCN(c2ccccc2)CC1,"inconclusive: 0.17 µM [cytotoxic, full curve]"
5,OCc1cccc(-c2ccc3ncc(Nc4cccc(C(F)(F)F)c4)n3n2)c1,"inconclusive: 56.2 µM [cytotoxic, single point]"
6,COc1ccc(CCNC(=O)CCCn2c(=O)c3ccccc3n(CC(=O)Nc3cc(Cl)ccc3C)c2=O)cc1OC,"inconclusive: 2.24 µM [cytotoxic, single point]"
7,Cc1ccc(-c2cccc(CN3C4CCC3CN(C(C)C)C4)c2)c(C)c1,"inconclusive: 25.1 µM [cytotoxic, single point]"
8,CCOCCCNC(=O)c1nnn2cc(-c3ccccc3)[nH]c(=O)c12,inactive
9,CCOc1cccc(C(c2c(C)n(C)n(-c3ccccc3)c2=O)c2c(C)n(C)n(-c3ccccc3)c2=O)c1OC,"inconclusive: 10 µM [cytotoxic, partial curve]"
10,O=C(NC1CCCN(c2cc(-c3ccccc3)[nH]n2)C1)c1ccc2c(c1)OCO2 (centres undefined),"inconclusive: 39.8 µM [cytotoxic, single point]"
11,COC1C(=O)N(CC2CC2)C12CCN(S(=O)(=O)C(C)C)CC2 (centres undefined),"inconclusive: 39.8 µM [cytotoxic, single point]"
12,Cc1ccc(S(=O)(=O)c2cc3cc(C(=O)O)ccc3oc2=O)cc1,"inconclusive: 20 µM [rising, partial curve, poor fit]"
13,Cc1cnc(C(=O)NC2C[C@H]3CC[C@@H](C2)N3C(=O)CCC2CCCCC2)cn1 (some centres undefined),"inconclusive: 5.01 µM [cytotoxic, partial curve, poor fit]"
14,Oc1ccc(/C=C/c2ccc(/C=C/c3ccc(O)cc3)c(Br)c2)cc1,"inconclusive: 20 µM [rising, partial curve]"
15,COc1ccc(N(CC(=O)Nc2cccc(Cl)c2C)S(=O)(=O)c2c(C)nn(C)c2C)cc1,"inconclusive: 39.8 µM [cytotoxic, single point]"
16,COc1cccc(N2C(=O)NC(=NC3CCCCC3)C23CCCN(Cc2ccsc2)C3)c1 (centres undefined),"inconclusive: 28.2 µM [cytotoxic, single point]"
17,COc1cccc(-c2nc(SCC(=O)Nc3ccc4c(c3)OCCO4)c(-c3ccccc3)[nH]2)c1,"inconclusive: 12.6 µM [cytotoxic, partial curve]"
18,CCOC(=O)c1ccccc1NC(=O)Cn1ccn2nc3c(c2c1=O)CCCCC3,"inconclusive: 10 µM [cytotoxic, partial curve, poor fit]"
19,Cc1n[nH]c(C)c1S(=O)(=O)N(CC(=O)Nc1ccc(C(F)(F)F)cc1)c1ccc(C(C)C)cc1,"inconclusive: 39.8 µM [cytotoxic, single point]"

# Source: PubChem BioAssay AID1671193 (National Center for Advancing Translational Sciences (NCATS), 2021)
